For this test, the system named is A375 multi-cell spheroids with HUVEC/MSC, viability. Kind of test: Anticancer human tumor A375 cell line growth inhibition [GQUAD].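 Note: spheroids exposed to compounds for seven days before readout.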 To be noted: compound alone 3.16 µM; stronger effect = lower value. The text has this:
DNA G-quadruplex Stabilizer Agents in Combinations in Complex Spheroids
A high-throughput screen of multi-cell type tumor spheroids was designed to identify active combinations of DNA G-quadruplex stabilizer agents and targeted small molecules. Complex spheroids include a stromal component modeled by human endothelial cells (HUVEC) and fibroblasts modeled by human mesenchymal stem cells (MSCs). The concentration ranges selected for each drug and investigational agent were based upon clinically achievable concentrations if the clinical Cmax of the agent was known.
Compounds. […] If the clinical Cmax for an agent had not been determined, the highest concentration tested was 10 microM. […]

Certain results were filed several times, with different values. The list is limited to them. The source may hold further records. Values given together are repeated measurements (runs, samples, wells, individuals or studies).

As for `Cc1[nH]c2ccc(F)cc2c1-c1nc2c3cccnc3c3ncccc3c2[nH]1`, the viability, T/C is listed as 86.6, 96.5, 98.4, 98.2, 91, 97.1, 103, 111, 64.7, 75.3, 83.5, 74.7%.

(Values after PubChem BioAssay AID2060485 (Molecular Pharmacology Branch, DTP, NCI, 2025).)
